# Test results as given in the supplement of paper PMC3334620.
# Over roughly 33,000 sequences, “E-score (-0.5 to 0.5)” has its median near -0.013; the highest 2% begin near 0.3. Some of the results follow.
# Target: T1, Msn1 (UniProt P22148)
# T1 sequence: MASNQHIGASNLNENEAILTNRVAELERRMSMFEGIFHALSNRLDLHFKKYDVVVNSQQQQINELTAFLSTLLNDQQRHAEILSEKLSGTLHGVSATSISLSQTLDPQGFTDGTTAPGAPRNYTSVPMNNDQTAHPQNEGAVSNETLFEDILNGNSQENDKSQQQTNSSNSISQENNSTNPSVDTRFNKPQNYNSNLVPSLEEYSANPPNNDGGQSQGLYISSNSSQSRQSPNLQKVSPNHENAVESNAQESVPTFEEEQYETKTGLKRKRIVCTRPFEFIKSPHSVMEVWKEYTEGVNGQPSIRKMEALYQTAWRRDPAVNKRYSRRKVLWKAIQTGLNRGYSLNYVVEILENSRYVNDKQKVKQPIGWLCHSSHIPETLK
# Assay: PBM E-score (8-mer binding enrichment) (E-score (-0.5 to 0.5)); higher = stronger / more preferred TF binding; most listed sequences are background and not binding sites
# Details: protein concentration: 200 nM; construct: GST-full length
# How it was run: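 Universal all-10-mer Agilent arrays, double-stranded by primer extension on fresh or once-stripped slides, were probed with about 100-200 nM GST-tagged yeast transcription factors made by PURExpress. Fluorescent anti-GST detected bound protein, and masliner normalised the scans. E-scores from the Universal PBM Analysis Suite were given to each ungapped eight-base word pooled with its reverse complement.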
row,Sequence,PBM E-score
1,ACATCTAT,0.266
2,CTCCAGAA,-0.14
3,AACAAGTC,0.103
4,CTCGGGGA,0.192
5,AAGACATA,0.382
6,GGACATAA,0.477
7,AGCACCCC,-0.278
8,AGGCTAAC,-0.0211
9,CGGCGGTC,-0.239
10,CCTCACTC,-0.0306
11,CAACACCC,-0.176
12,GTGTTGTA,-0.0638
13,CTCGCCCC,-0.302
14,ATAATAAG,0.127
15,TAGTAAGA,0.153
16,AACCGGCT,-0.0856
17,ACGCTGAT,-0.0888
18,GTAAAATA,0.0456
19,ATAGCTTG,-0.0936
20,CCACCTTA,-0.0186
21,CAGTGTCC,0.348
22,GTCAGGAA,0.0369
23,ACGGCGTC,-0.068
24,CGTATAAC,-0.0592
25,AATTGGTG,-0.143

row,Sequence,PBM E-score
1,GCGTCCAC,-0.0873
2,CATTTCCA,0.186
3,GCTTAAAA,-0.0428
4,ATACTGCC,0.0735
5,AATGAGCG,0.159
6,CGATATCC,0.0314
7,ACTCACTG,-0.123
8,AAGTGTAA,-0.0767
9,CAACGGCC,-0.165
10,AACAACAA,0.086
11,CGTGTGCA,-0.173
12,AAACGCGC,-0.0897
13,CACCCGTC,-0.12
14,CAAGTGGG,-0.0703
15,ACAGGTAG,-0.0716
16,AGCAAGGA,-0.072
17,AAAGTCAT,0.0858
18,AGCCATTG,-0.0669
19,CACGAGGG,-0.233
20,AGGACTAA,0.309
21,AGATCCAC,0.102
22,GAGCGGAA,0.0283
23,AATGTGAC,0.0889
24,AGTCGTAC,-0.0642
25,ATCCTCGG,0.129

row,Sequence,PBM E-score
1,TGGAGCAA,0.0733
2,AGAATAGC,0.016
3,ACGAGGGG,-0.34
4,GCGTTGAC,-0.0906
5,CCCAATAA,-0.147
6,ACTGCGGG,-0.124
7,ATCAGACG,-0.154
8,GCAGGTTA,-0.233
9,AAATGACT,0.0423
10,TACTGCTA,-0.0837
11,AGGGCCCT,-0.139
12,ATCTGCTC,-0.134
13,AAACACAT,0.0288
14,CGTGGAGA,-0.0918
15,ATGAGCGG,-0.175
16,GGCTTAAC,-0.116
17,ACGATTCG,-0.0302
18,GAGGCAAC,-0.263
19,GTTGGTAA,0.0523
20,ACGTCCAA,0.142
21,TCCACCGA,-0.0613
22,CGCTGCTA,-0.121
23,AAGGGATG,-0.119
24,GCTTATAC,-0.0678
25,AGAGAGTA,-0.122

row,Sequence,PBM E-score
1,TCTGGAAA,-0.0457
2,CCCAGGTA,-0.116
3,CCCCTCGA,-0.0177
4,CAATGGGC,-0.143
5,CGCGATAG,-0.0603
6,AACAGCCC,0.0239
7,ATCGTACG,0.0214
8,AAACGCAC,-0.0443
9,GAGAACTC,-0.162
10,AGTGCCTC,-0.127
11,GTTGCAAA,0.115
12,AATTAATC,0.0989
13,AATAGCCA,0.0891
14,AGGGTCTC,-0.25
15,CTGCATGC,-0.0271
16,CTCCGCGC,-0.00855
17,GACACTAA,0.211
18,AAGATCAA,0.0239
19,GATCTCAC,-0.0662
20,ATCTATGC,0.133
21,TCTCGTCA,-0.0168
22,CCGACTAA,0.0907
23,CCAATGCG,-0.199
24,ACCATTTA,0.0929
25,CTGCGGTA,0.0889

row,Sequence,PBM E-score
1,GTTGAAGA,0.0838
2,TTACCTAA,0.00814
3,GGGCGTAC,-0.0104
4,GAATATTA,0.19
5,AAACCGCC,-0.0343
6,CCCAGCTA,-0.208
7,GCTCATCC,-0.219
8,ACGCCCCC,-0.284
9,CGCACGTA,-0.138
10,TTCACAAA,0.0203
11,CAGGGATA,-0.122
12,CAGACGTA,0.0031
13,GACCAAGA,-0.00983
14,GAGATTGA,-0.0741
15,CATTCCCA,0.0356
16,ACCTGGAA,0.0986
17,ATGCCGCA,0.0532
18,AGACGACA,0.138
19,ATATCTGA,0.112
20,ACCATAAG,-0.115
21,CCTCAAAC,-0.0717
22,CCACCCCG,-0.211
23,AATGTCTC,0.463
24,ATTCTAAG,0.154
25,CCCTCCCC,-0.125

row,Sequence,PBM E-score
1,AACAATGA,0.193
2,AGGTCCGA,0.132
3,CTAGCTCC,-0.148
4,ACTCTTCT,-0.215
5,GAAGAGGA,-0.152
6,CCCGCGCC,-0.216
7,AGAACGTA,-0.0851
8,AATTAGCG,0.0486
9,AGTAGCCG,-0.0737
10,ACTTCCAG,-0.219
11,AGAGTAAT,0.139
12,TCATTGCA,-0.019
13,GAACTCGC,0.0554
14,TCTCAACA,0.0746
15,AGGGACAG,0.107
16,CAATGCGA,-0.14
17,CGCCCAAC,-0.127
18,ACCGCTGG,-0.0751
19,GCCCGTAA,-0.0686
20,AGATCTAA,-0.112
21,AGAGTGCG,0.0388
22,AAGGGTAT,0.00629
23,GAAGTTGA,0.00923
24,CGACCGAA,0.104
25,CAGAGAAG,-0.18

row,Sequence,PBM E-score
1,GGAATAGA,0.169
2,CCATAATC,0.139
3,AGGCTGAC,-0.178
4,ATGCCGTG,0.0686
5,AAGCTAGC,-0.138
6,ATGAACAG,0.123
7,ACTGACAG,0.14
8,CAGGCGTC,-0.207
9,ATGAATAG,0.0311
10,AGAGGAAC,-0.0926
11,CTCCTCCA,-0.267
12,CCCTTAGG,0.0242
13,GTGAAAAA,0.131
14,AGCGTTAG,-0.107
15,ACGAGAGT,0.0188
16,CAATCGAC,0.0133
17,AGGTTTCC,-0.129
18,AGCTTAGC,-0.079
19,AAAGCTGA,-0.0697
20,GTTATTTA,0.104
21,CCCAGCGA,-0.126
22,ACACAGAT,-0.0302
